Source: article PMC10759634
No constants are given. Whether binding was seen depends on the method and setting. Binding seen in cells or lysates may run through a third protein. Some binding calls cover weakened binding; strength is not graded here. Tags and fused reporters may be left off the sequences shown. Each block holds one molecule with its values, some of them ahead of it.

Amino acid sequences for entries named in this document (tags omitted). A change or cut given only in a name is not applied to a line headed by its entry. Chains listed by the source or under a name are the forms on record and can include a tag or linker. Residues count along the entry.
UniProt P04150: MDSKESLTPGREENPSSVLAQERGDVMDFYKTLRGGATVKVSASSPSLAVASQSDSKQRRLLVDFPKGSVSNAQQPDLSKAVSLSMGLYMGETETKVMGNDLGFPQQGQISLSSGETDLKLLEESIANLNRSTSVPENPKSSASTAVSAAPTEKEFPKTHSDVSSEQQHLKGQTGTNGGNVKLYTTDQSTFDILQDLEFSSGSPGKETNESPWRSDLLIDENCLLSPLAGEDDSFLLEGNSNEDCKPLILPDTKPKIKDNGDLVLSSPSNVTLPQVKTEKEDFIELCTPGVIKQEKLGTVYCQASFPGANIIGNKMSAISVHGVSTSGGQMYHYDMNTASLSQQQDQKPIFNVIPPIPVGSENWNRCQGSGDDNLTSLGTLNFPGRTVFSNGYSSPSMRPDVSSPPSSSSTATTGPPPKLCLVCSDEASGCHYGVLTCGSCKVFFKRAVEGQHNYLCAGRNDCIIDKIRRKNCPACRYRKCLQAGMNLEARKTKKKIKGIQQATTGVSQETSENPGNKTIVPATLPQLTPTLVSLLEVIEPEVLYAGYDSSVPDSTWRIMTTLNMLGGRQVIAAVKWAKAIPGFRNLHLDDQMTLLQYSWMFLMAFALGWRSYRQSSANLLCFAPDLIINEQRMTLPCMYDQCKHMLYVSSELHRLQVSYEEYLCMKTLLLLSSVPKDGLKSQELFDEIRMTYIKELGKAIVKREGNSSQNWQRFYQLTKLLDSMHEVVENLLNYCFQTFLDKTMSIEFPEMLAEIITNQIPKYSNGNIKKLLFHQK
MYC-G9a SET (Q9Z148, residues 1091-1208): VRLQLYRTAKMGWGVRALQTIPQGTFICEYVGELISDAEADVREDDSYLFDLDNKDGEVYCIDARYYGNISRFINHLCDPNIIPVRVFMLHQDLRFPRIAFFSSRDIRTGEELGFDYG
Myc-G9a WT (Q9Z148-2, form named): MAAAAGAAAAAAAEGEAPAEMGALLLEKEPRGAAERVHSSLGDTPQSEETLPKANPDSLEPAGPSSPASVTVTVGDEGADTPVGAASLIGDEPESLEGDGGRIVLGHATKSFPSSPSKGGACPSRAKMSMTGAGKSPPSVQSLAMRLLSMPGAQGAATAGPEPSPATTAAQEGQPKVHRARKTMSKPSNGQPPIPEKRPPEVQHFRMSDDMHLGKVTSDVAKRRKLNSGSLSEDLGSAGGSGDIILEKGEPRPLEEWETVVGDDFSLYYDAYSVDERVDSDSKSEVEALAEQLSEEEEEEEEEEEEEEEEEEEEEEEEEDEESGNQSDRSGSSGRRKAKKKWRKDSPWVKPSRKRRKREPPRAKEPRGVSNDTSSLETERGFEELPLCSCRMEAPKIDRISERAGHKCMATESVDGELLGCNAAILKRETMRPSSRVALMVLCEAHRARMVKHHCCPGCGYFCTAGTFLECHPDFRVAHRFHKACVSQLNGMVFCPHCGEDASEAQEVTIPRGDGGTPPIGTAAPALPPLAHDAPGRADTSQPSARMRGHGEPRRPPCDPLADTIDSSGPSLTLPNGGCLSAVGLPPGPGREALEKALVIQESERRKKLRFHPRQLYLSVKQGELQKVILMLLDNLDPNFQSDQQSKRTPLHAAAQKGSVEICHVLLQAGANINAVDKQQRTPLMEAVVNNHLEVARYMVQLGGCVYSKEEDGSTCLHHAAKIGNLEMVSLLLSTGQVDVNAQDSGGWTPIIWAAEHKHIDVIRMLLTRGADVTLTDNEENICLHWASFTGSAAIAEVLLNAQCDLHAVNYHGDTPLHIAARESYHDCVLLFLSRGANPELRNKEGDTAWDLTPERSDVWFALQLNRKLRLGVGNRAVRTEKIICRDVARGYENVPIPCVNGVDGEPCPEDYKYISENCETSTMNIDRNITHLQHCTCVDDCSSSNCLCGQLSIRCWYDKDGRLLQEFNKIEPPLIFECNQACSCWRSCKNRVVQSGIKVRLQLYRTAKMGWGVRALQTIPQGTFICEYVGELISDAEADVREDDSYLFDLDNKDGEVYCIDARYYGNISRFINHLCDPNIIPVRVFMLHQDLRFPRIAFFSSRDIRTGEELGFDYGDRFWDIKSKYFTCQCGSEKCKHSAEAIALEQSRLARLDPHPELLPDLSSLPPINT

Tests used:
[1] = biological target: T1, GST-G9a (aa 1-280) (human) (UniProt Q96KQ7); test: pull-down; GST or GST fused to hG9a fragments bound to glutathione-agarose beads, incubated with in vitro synthesized Flag-tagged protein; bound protein detected by immunoblot with anti-Flag; only the target purified
T1 sequence: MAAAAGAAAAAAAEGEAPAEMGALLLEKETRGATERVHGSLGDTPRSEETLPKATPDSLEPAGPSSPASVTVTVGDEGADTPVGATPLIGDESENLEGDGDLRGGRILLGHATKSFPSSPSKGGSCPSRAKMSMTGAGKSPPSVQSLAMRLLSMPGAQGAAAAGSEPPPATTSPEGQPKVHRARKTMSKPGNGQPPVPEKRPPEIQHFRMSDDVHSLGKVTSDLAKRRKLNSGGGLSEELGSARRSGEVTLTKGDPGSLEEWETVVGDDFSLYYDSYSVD

[2] = biological target: GST-G9a (aa 200–1210) (human) (UniProt Q96KQ7); test: as above
Flag-mPrdm12 WT (mouse) = biological target: T2, Flag-mPrdm12 WT (mouse) (UniProt A2AJ77); test: co-IP; HEK293T cells co-transfected; lysis in IPH buffer (150 mM NaCl, 5 mM EDTA pH 8.0, 50 mM Tris pH 8.0, 1% NP-40); immunoprecipitation with anti-Flag antibodies overnight at 4°C, Protein A Sepharose; western blot with anti-Flag or anti-Myc
T2 sequence: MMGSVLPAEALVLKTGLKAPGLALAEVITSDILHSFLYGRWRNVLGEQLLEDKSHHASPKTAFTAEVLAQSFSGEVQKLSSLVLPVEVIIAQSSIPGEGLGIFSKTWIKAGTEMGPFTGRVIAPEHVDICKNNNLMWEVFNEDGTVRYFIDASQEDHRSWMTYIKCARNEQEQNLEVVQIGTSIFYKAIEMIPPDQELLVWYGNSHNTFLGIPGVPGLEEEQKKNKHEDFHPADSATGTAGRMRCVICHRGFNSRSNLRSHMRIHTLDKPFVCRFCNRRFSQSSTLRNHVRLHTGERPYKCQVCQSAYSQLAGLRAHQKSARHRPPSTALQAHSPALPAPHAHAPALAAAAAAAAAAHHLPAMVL

binding [1]: binds | binding [2]: binds
Molecule: Flag human glucocorticoid receptor protein (hGR) (from UniProt P04150 1-777)

binding (Flag-mPrdm12 WT (mouse)): binds
Molecule: MYC-G9a SET (from UniProt Q9Z148 1091-1208) (domain or fragment)

binding (Flag-mPrdm12 WT (mouse)): binds
Molecule: Myc-G9a WT (from UniProt Q9Z148-2 1-1172)

binding [1]: no binding | binding [2]: binds
B1: full length Flag-human Prdm12 (protein, UniProt Q9H4Q4 1-367)
chain: MMGSVLPAEALVLKTGLKAPGLALAEVITSDILHSFLYGRWRNVLGEQLFEDKSHHASPKTAFTAEVLAQSFSGEVQKLSSLVLPAEVIIAQSSIPGEGLGIFSKTWIKAGTEMGPFTGRVIAPEHVDICKNNNLMWEVFNEDGTVRYFIDASQEDHRSWMTYIKCARNEQEQNLEVVQIGTSIFYKAIEMIPPDQELLVWYGNSHNTFLGIPGVPGLEEDQKKNKHEDFHPADSAAGPAGRMRCVICHRGFNSRSNLRSHMRIHTLDKPFVCRFCNRRFSQSSTLRNHVRLHTGERPYKCQVCQSAYSQLAGLRAHQKSARHRPPSTALQAHSPALPAPHAHAPALAAAAAAAAAAAAHHLPAMVL
